# From PubChem BioAssay AID588855 (National Center for Advancing Translational Sciences (NCATS), 2011)
# About 5,000 (1.2%) of roughly 410,000 compounds were called active. Inconclusive results, whose numbers are uncertain, are shown with a selection of clear calls. Calls follow the shape of the dose curve; as a rule, active = well fitted inhibition curve with a large enough effect; inconclusive = small, poorly fitted or top-dose-only effect; inactive = no such curve, though single readings can be large or run the other way. Where the call is inconclusive, the potency comes from a doubtful curve fit.
# Assay: qHTS for Inhibitors of TGF-b; also: nearly all actives have a fitted effect of over 65% in size
# Conditions: HepG2 CAGA-GFP TGF-b/SMAD3 reporter, GFP fluorescence, 18 h, TGF-beta stimulated, 500 pg/mL final; series mostly up to 46.1 µM
# Outline: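 HEPG2 CAGA-GFP reporter cells (1000/well, DMEM with 1% FBS) received compounds, then recombinant TGF-beta at 500 pg/mL final for 18 hours at 37 degrees C. Per-cell GFP summed per well was normalised to unstimulated and stimulated DMSO controls before curve fitting.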
# Potency is read from the fitted curve at half-maximal effect; tags tell the direction and shape of the fitted curve.
row,Structure (SMILES),Potency
1,O=C(NCc1ccc(Cl)cc1)c1ccccc1CCc1ccccc1,inactive
2,COc1ccc(C2=Nc3ccc(F)cc3NC(c3cccc(C(F)(F)F)c3)=N2)cc1,inactive
3,Cc1ccc(NC(=O)CNC(=O)c2ccc(Br)o2)nc1,"inconclusive: 35.5 µM [inhibitor, single point]"
4,O=C(CNc1cc(S(=O)(=O)N2CCOCC2)ccc1N1CCCC1)Nc1ccc(Cl)cc1,"inconclusive: 11.2 µM [inhibitor, partial curve, poor fit]"
5,COc1ccc(OCc2nnc(SCC(=O)N3CCOCC3)o2)cc1,"inconclusive: 6.31 µM [inhibitor, single point]"
6,O=C1NC[C@H](Cc2ccccc2)N(C[C@H]2CCCN2C[C@H](Cc2ccccc2)N2C[C@H](Cc3ccccc3)N(CC3CCCCCC3)C(=O)C2=O)C1=O,"inconclusive: 35.5 µM [inhibitor, single point]"
7,O=C(CSc1c2c(nc3ccccc13)CCC2)Nc1ccc(F)cc1,"inconclusive: 35.5 µM [inhibitor, single point]"
8,COc1ccc(OC)c(CN2CCN(C(=O)CNC(=O)c3ccccc3F)CC2)c1,inactive
9,CC(C)(C)c1ccc(C(=O)NCC(c2ccco2)S(=O)(=O)c2ccc(F)cc2)cc1 (centres undefined),"inconclusive: 35.5 µM [inhibitor, single point]"
10,COc1cccc(CN(C)C(=O)c2cccc(S(=O)(=O)N3CCN(c4ccccc4)CC3)c2)c1OC,"inconclusive: 7.08 µM [inhibitor, partial curve]"
11,CCOC(=O)C1(C)CCCN(C(=O)c2c(-c3ccccc3)noc2C)C1 (centres undefined),inactive
12,COc1ccc(C(=O)NNC(=O)Nc2ccc(C)cc2)cc1,"inconclusive: 14.1 µM [inhibitor, partial curve, poor fit]"
13,CCOCCCNC(=S)N1CCCN(c2nc3cc(C)c(C)cc3cc2C#N)CC1,"inconclusive: 25.1 µM [inhibitor, single point]"
14,CC(C)CCNC(=O)c1cc(-c2ccncc2)nc2ccc(S(=O)(=O)N3CCOCC3)cc12,"inconclusive: 2.51 µM [inhibitor, partial curve]"
15,CCSc1cc(C)nc2c(-c3ccccc3)cnn12,"inconclusive: 11.2 µM [inhibitor, partial curve, poor fit]"
16,CCCC(c1nnnn1CCOC)N1CCN(c2cccc(OC)c2)CC1 (centres undefined),"inconclusive: 12.6 µM [inhibitor, single point]"
17,Cc1cnc2c3c(cc(Cl)c2c1)-c1ccccc1S(=O)(=O)N3,active: 3.98 µM
18,CCOC(=O)/C(=N\Nc1ccc(Cl)cc1)c1csc(Nc2ccccc2)n1,"inconclusive: 35.5 µM [inhibitor, single point]"
19,CCc1cccc(CC)c1NC(=S)Nc1cccc(Cl)c1Cl,"inconclusive: 3.98 µM [inhibitor, single point]"
20,O=C(CN1C(=O)c2ccccc2S1(=O)=O)Nc1cccc(S(=O)(=O)N2CCCCC2)c1,inactive
21,CCOc1ccc(NC(=O)Nc2cccnc2)cc1,inactive
22,COc1ccc(C(C#N)N2N=C(C)CC2c2ccccc2)cc1 (centres undefined),inactive
23,Cc1c(C(=O)OC(C)C)sc(NC(=O)C2c3ccccc3Oc3ccccc32)c1C(=O)OC(C)C,inactive

row,Structure (SMILES),Potency
1,COc1ccc2[nH]c(C)c(C(=O)CN3CCc4cc(OC)c(OC)cc4C3)c2c1,"inconclusive: 17.8 µM [inhibitor, single point]"
2,CCOC(=O)c1c(S(=O)(=O)N2CCCC(C(=O)Nc3ccc(C)cn3)C2)c(C)n(C)c1C (centres undefined),inactive
3,Cc1cccc(/C=N/n2c(-c3cc(-c4ccccc4)n[nH]3)n[nH]c2=S)c1,"inconclusive: 11.2 µM [inhibitor, single point]"
4,O=C(O)CCC1COc2ccccc2O1 (centres undefined),"inconclusive: 35.5 µM [inhibitor, single point]"
5,CCOC(=O)c1cccc(NS(=O)(=O)c2cc(-c3cnc(C4CC4)o3)ccc2C)c1,active: 17.8 µM
6,CC(C)C[C@H]1CNC(=S)N1CC1CCCN1C[C@H](CC(C)C)N1C[C@H](Cc2ccccc2)N(CC2CCCCCC2)C1=S (some centres undefined),inactive
7,O=C(Cc1cccs1)N1CCN=C1SCc1cccc(F)c1,"inconclusive: 20 µM [inhibitor, single point]"
8,O=[N+]([O-])c1c(NCCCO)cc(SCc2ccco2)c2nonc12,active: 11.2 µM
9,Cc1ccc(C2(C)NC(=O)N(CC(=O)N3CCN(S(=O)(=O)c4ccc(Cl)s4)CC3)C2=O)cc1 (centres undefined),"inconclusive: 35.5 µM [inhibitor, single point]"
10,O=C(O)CCC(=O)Nc1sc2c(c1C(=O)Nc1ccccc1)CCCCC2,"inconclusive: 10 µM [inhibitor, partial curve, poor fit]"
11,Cc1nnc(SCC(=O)Nc2c(C)n(C)n(-c3ccccc3)c2=O)n1Cc1ccccc1,"inconclusive: 0.562 µM [inhibitor, partial curve, poor fit]"
12,CCOC(=O)C(C)Sc1nc2c([nH]c3ccccc32)c(=O)n1C (centres undefined),"inconclusive: 11.2 µM [inhibitor, single point]"
13,COc1ccc(-c2cc(C3CC3)nc3sc(C#N)c(N)c23)cc1,"inconclusive: 35.5 µM [inhibitor, single point]"
14,O=C(c1ccccc1Cl)N1CCNCC1,inactive
15,Cc1c(C(=O)C(=O)N2c3ccc(F)cc3CCC2C)c2ccccc2n1C (centres undefined),"inconclusive: 22.4 µM [inhibitor, partial curve, poor fit]"
16,CC(CNC(=O)CCc1cn(Cc2ccccc2Cl)c2ccccc12)c1ccccc1 (centres undefined),"inconclusive: 20 µM [inhibitor, partial curve, poor fit]"
17,Cn1ccnc1SCC(=O)NC1CC1,"inconclusive: 35.5 µM [inhibitor, single point]"
18,Cn1c(SCC(=O)NCC2CCCO2)nc2scc(-c3ccccc3)c2c1=O (centres undefined),"inconclusive: 20 µM [inhibitor, single point]"
19,COc1ccc(Cl)cc1NC(=O)COC(=O)C(CC(C)C)N1C(=O)C2CC=CCC2C1=O (centres undefined),"inconclusive: 12.6 µM [inhibitor, partial curve, poor fit]"
20,Cc1cc(N/N=C/c2ccncc2)nc2ccccc12,inactive
21,Cc1ccccc1NC(=O)Cc1nc(COC(=O)c2ccc(O)cc2O)cs1,inactive
22,CCN1CCN(Cc2ccc(NC(=O)c3ccc(C)c(NC(=O)c4cc(-c5ccc(Br)cc5)n[nH]4)c3)cc2C(F)(F)F)CC1,"inconclusive: 11.2 µM [inhibitor, partial curve, poor fit]"
23,COc1ccc(-n2nc(C(=O)N3CCN(c4ccccc4OC)CC3)c3c4ccccc4n(C)c3c2=O)cc1Cl,inactive

row,Structure (SMILES),Potency
1,Cc1c(/C=N/NC(=O)CNc2ccccc2)c2ccccn2c1C(=O)c1ccc(Cl)cc1,inactive
2,COC(=O)c1ccc(NC(=S)NCCC2=CCCCC2)cc1,"inconclusive: 5.62 µM [inhibitor, partial curve]"
3,Cc1cc(Cl)ccc1OCCCC(=O)NCc1ccncc1,"inconclusive: 4.47 µM [inhibitor, partial curve, poor fit]"
4,Cc1ccc(N=C2NC(=O)/C(=C/C=C/c3ccco3)S2)cc1,"inconclusive: 35.5 µM [inhibitor, partial curve, poor fit]"
5,CC(=O)Nc1ncnc2c1c(-c1ccc(Cl)cc1)nn2C(C)(C)C,active: 3.55 µM
6,Nc1ncc(Br)cc1N=Cc1ccccc1,"inconclusive: 0.708 µM [inhibitor, full curve, poor fit]"
7,COc1ccc(NC(=S)Nc2ccc(OCc3ccccc3)cc2)c(OC)c1,"inconclusive: 35.5 µM [inhibitor, single point]"
8,COc1ccc(C=Cc2ccc3ccccc3n2)c(OC)c1,"inconclusive: 35.5 µM [inhibitor, single point]"
9,CC(C)(C)CC(C)(C)c1ccc(O)c(CN2CCN(CCC#N)CC2)c1,inactive
10,COCCCNC(=S)N(Cc1ccccc1)Cc1nc2ccccc2c(=O)[nH]1,inactive
11,Cc1ccc(S(=O)(=O)NCCC(=O)N2CCN(C/C=C/c3ccccc3)CC2)cc1,"inconclusive: 35.5 µM [inhibitor, single point]"
12,O=C1CC[C@@H](CN(Cc2ccccn2)Cc2nc(Cc3cccc(C(F)(F)F)c3)no2)N1,"inconclusive: 0.112 µM [inhibitor, full curve, poor fit]"
13,COc1ccc(OC)c(C(Nc2ccccc2)P(=O)(OC(C)C)OC(C)C)c1 (centres undefined),inactive
14,Fc1cccc2sc(Nc3nnc(-c4ccco4)o3)nc12,"inconclusive: 35.5 µM [inhibitor, single point]"
15,Cc1ccc(O)c(NC(=O)CSc2n[nH]c(-c3ccccc3)n2)c1,"inconclusive: 22.4 µM [inhibitor, single point]"
16,Cc1ccc(C(=O)N2CCC(C)CC2)cc1S(=O)(=O)N1CCCCC1,inactive
17,O=[N+]([O-])c1ccc(-n2cnc3ccccc32)c([N+](=O)[O-])c1,"inconclusive: 31.6 µM [inhibitor, single point]"
18,O=S(=O)(c1ccc(Cl)nc1)N(Cc1ccccc1)Cc1ccccc1,inactive
19,O=C(Cn1c(NCCCCl)nc2ccccc21)c1ccccc1,inactive
20,O=C(CNC(=O)c1ccccc1Br)N/N=C/c1ccccc1O,"inconclusive: 7.94 µM [inhibitor, partial curve, poor fit]"
21,CCOC(=O)c1nc2ccccc2c(=O)[nH]1,inactive
22,CCc1cccc(NC(=O)c2nnn(Cc3ccc(SC)cc3)c2N)c1,inactive
23,CC(C)(C)S(=O)N1Cc2cc(C(=O)N[C@@H]3CCN(Cc4ccccc4)C3)nc(-c3cccc(-c4cc5ccccc5o4)c3)c2[C@@H]1CCO (some centres undefined),"inconclusive: 12.6 µM [inhibitor, partial curve]"
